Measured values: article PMC4336329 (PLoS ONE, 2015)
The whole screen tested about 310,000 compounds, of which about 2,200 (0.71%) showed an effect of 50% or more. The effect is printed as a negative number. This is one part of the list.

Biological target: human ether-à-go-go-related gene (hERG) potassium channel (human, UniProt Q12809)
Test: primary screen, population patch clamp on CHO cells stably expressing hERG

Sequence of human ether-à-go-go-related gene (hERG) potassium channel (Q12809 whole entry, looked up): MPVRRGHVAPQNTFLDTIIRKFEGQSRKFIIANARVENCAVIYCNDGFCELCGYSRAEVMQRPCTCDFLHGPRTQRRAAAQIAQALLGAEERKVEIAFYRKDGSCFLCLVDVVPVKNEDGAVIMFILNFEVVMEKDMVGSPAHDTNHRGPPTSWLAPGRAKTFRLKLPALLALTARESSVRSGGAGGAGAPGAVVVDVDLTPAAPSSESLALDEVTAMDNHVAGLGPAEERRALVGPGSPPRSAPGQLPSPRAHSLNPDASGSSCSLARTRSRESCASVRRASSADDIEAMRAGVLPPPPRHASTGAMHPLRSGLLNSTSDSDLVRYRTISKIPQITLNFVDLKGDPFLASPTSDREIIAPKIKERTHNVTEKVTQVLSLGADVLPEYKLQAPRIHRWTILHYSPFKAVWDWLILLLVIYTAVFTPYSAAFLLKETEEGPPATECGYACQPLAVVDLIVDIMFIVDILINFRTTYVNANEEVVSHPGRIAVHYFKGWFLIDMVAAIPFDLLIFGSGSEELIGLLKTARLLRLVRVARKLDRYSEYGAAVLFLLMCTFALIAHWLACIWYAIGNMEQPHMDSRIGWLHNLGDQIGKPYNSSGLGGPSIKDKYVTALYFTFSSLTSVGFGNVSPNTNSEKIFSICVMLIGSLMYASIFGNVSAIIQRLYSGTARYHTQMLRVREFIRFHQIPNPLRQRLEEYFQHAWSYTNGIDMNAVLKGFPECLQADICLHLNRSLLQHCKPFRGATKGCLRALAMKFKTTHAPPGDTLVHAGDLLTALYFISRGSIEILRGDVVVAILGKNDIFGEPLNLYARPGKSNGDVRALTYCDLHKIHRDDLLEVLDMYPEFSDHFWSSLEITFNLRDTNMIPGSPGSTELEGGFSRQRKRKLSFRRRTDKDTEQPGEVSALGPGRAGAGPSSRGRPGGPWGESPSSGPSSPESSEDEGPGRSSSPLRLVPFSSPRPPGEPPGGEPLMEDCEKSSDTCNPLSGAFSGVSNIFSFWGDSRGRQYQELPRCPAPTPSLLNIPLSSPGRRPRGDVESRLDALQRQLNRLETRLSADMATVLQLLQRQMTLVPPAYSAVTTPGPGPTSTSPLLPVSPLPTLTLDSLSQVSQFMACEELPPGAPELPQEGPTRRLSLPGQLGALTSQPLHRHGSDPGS

Structure (SMILES)	hERG current change (%, negative = inhibition) at 1uM [%]
CCOC(=O)CSc1nnc(-c2ccc(NS(=O)(=O)c3ccc(C)cc3)cc2)o1	-9.7
COc1ccc(C2CC(c3cccs3)=NN2C(=O)COC(=O)c2cncc(Br)c2)cc1OC (stereo not shown)	-0.627
CCCSc1nc2c(c(=O)[nH]c(=O)n2C)n1C	6.05
CCC(CC)c1nnc(NC(=O)c2ccc(N3CCCC3=O)cc2)s1	1.43
CN(CC(=O)Nc1cccc(F)c1)C(=O)c1csc2c1CCCC2	18.7
Cc1ccc(NC(=O)NC2CC(=O)N(c3ccc4c(c3)OCCO4)C2)cc1F (stereo not shown)	4.84
N#CCCN(C(=O)COC(=O)C1=NNC(=O)CC1)c1ccccc1	9.89
COc1ccc(S(=O)(=O)Nc2ccc(S(=O)(=O)N3CCOCC3)cc2)cc1	3.14
CCOc1cc(CN2CCSCC2)ccc1O	5.37
c1ccc(OCCOc2cccc3cccnc23)cc1	10.7
CC(C)(C)NS(=O)(=O)c1ccc(NC(=O)C2CCCO2)cc1 (stereo not shown)	11.8
CN1C(=O)CC(N2CCN(c3ccc(Cl)cc3)CC2)C1=O (stereo not shown)	-1.86
Cc1ccc(OCC(=O)Nc2ccc(C)c(S(=O)(=O)N3CCCCCC3)c2)c([N+](=O)[O-])n1	-7.57
CCOc1ccc(CCNC(=O)c2cc(S(=O)(=O)N3CCOCC3)ccc2C)cc1OCC	11.8
COc1ccc2c(c1)C(C)=CC(C)(C)N2S(=O)(=O)c1ccc(C)cc1	10.6
COc1ccc(OC)c(C2CC(=O)OC3=C2C(=O)CC(C)(C)C3)c1 (stereo not shown)	7.47
O=S(=O)(c1ccc(F)cc1)N1CC=C(c2ccccc2)CC1	10.8
COc1ccc(NC(=O)c2ccc(CNS(=O)(=O)c3cccc(OC)c3)cc2)cc1	0.0207
COC(=O)c1cccc(NC(=O)CSc2nnc(-c3ccco3)o2)c1	15.6
Cc1cc(C(=O)CN2c3cccc4cccc(c34)S2(=O)=O)c(C)n1C	5.47
O=C(CCNS(=O)(=O)c1ccccc1F)NCc1ccc2c(c1)OCO2	9.88
Cc1ccc2cc(NC(=O)c3ccc(C(C)(C)C)cc3)ccc2n1	16.1

Structure (SMILES)	hERG current change (%, negative = inhibition) at 1uM [%]
COc1ccc(CCNc2cc(N3CCN(C(=O)c4ccccc4OC)CC3)ccc2[N+](=O)[O-])cc1OC	9.91
COc1ccc(CCNc2c([N+](=O)[O-])ncn2C)cc1OC	15.3
CCOC(=O)Cc1csc(SCC(=O)c2c(N)n(CC(C)C)c(=O)n(C)c2=O)n1	5.54
Cc1ccc(S(=O)(=O)NNC(=O)CCC(=O)Nc2ccc(C)cc2C)cc1	8.19
COc1ccc(C(=O)CN(C(=O)c2ccc(Cl)cc2)N2C(=O)c3ccccc3C2=O)cc1	-2.12
c1ccc(Cc2nnc3sc(-c4ccccn4)nn23)cc1	-0.519
O=C(NC(=S)NCC1CCCO1)c1ccccc1[N+](=O)[O-] (stereo not shown)	19.8
CC(=O)Nc1cccc(N2C(=O)CC(Cc3ccccc3)C2=O)c1 (stereo not shown)	2.44
COc1ccc(C(=O)NNC(=O)CN(C)S(=O)(=O)c2ccc(Cl)cc2)c(OC)c1OC	-28.3
Cc1cccn2c(CNCCc3ccccn3)c(C(=O)N3CCOCC3)nc12	6.02
COC(=O)c1c(C)cc(O)c(C)c1O	13.1
COC(=O)c1sccc1NC(=O)c1ccc(C)cc1	15
Cc1ccc(C(=O)NCCc2cc3ccc(C)c(C)c3[nH]c2=O)cc1[N+](=O)[O-]	-8.17
O=C1CCCC(O)=C1C=Nc1ccc(O)cc1	14.1
COc1ccc2c(c1)cc1c(=O)n(CC(=O)NCCCN3CCOCC3)nc(C)n12	12.7
Cl.N=c1ccn(Cc2ccccc2Cl)cc1	16.8
Cc1[nH]c2ccccc2c1CN1CCN(c2ccccn2)CC1	-5.15
CCC(Oc1ccccc1)C(=O)Nc1cc(C(F)(F)F)ccc1N1CCOCC1 (stereo not shown)	17.8
Cc1[nH]ccc(=O)c1OCC(=O)O	14.5
CCOc1ccc(S(=O)(=O)N2CCC(C(=O)OC(C)C(=O)NC3CCCCC3C)CC2)cc1 (stereo not shown)	2.81
COC(=O)C1=C(NC(=O)c2ccc(Br)cc2)CCS1	8.99
Cc1ccc(NC(=O)CNc2ccc(N3CCOCC3)cc2)cc1S(=O)(=O)N(C)C	-3.53

Structure (SMILES)	hERG current change (%, negative = inhibition) at 1uM [%]
O=C(O)c1ccccc1Nc1ccccc1	10.3
Cc1ccc(S(=O)(=O)ON=C2CCN(S(=O)(=O)c3ccccc3)CC2)cc1	20.5
Nc1nc(SCC(=O)NCc2ccc(F)cc2)[nH]c(=O)c1NC(=O)c1ccc(Cl)cc1	1.88
Cc1ccnc2nc(C(=O)Nc3nnc(CC(C)C)s3)nn12	9.78
O=[N+]([O-])c1ccc(OCc2cnc(Cl)s2)c([N+](=O)[O-])c1	-18.3
S=c1[nH]nc(-c2cc(-c3ccccc3)n[nH]2)n1/N=C/c1cccs1	10.2
Cc1ccc(N2CC(C(=O)N3CCC4(CC3)CC(=O)c3ccccc3O4)CC2=O)cc1C (stereo not shown)	-6.22
O=C(c1ccc2c(c1)OCCO2)C1CCN(S(=O)(=O)c2cccc(F)c2)CC1	-2.61
O=C1C2C(c3cccc(/C=C/c4ccccc4)c3)CC=CC2C(c2ccc(C(F)(F)F)cc2)N1Cc1ccccc1 (stereo not shown)	7.68
O=C(NCCCn1ccnc1)c1cc2nc(-c3ccc(Br)cc3)cc(C(F)(F)F)n2n1	-6.23
COc1cccc(OCC(=O)NNC(=O)c2ccc3ccccc3c2)c1	8.87
CCN(CC)c1ccc(/C=N/NC(=O)C2CC2)cc1	5.61
Cc1ccc(S(=O)(=O)NC(=O)N(CCC#N)Cc2ccccc2)cc1	10.9
CCC(C)[C@H](NC(=O)Nc1cccc(OC)c1)C(=O)OC (stereo partly shown)	15.7
Cc1ncoc1C(=O)N1CCCC(CCC(=O)NCc2ccc(F)c(F)c2)C1 (stereo not shown)	4.81
Cn1cc(CC(=O)NCc2ccc(F)cc2)c2ccccc21	5.25
COc1ccccc1/C=C/C(=O)NCc1ccccn1	10.3
N#C[C@@H]1N(Cc2ccccc2)C(=O)[C@H]2CC3C=CC21O3 (stereo partly shown)	3.66
Cc1cccc(NC(=S)N(CCCN2CCOCC2)Cc2cn(C)c3ccccc23)c1	12.5
CCCn1c(=O)[nH]c2ccccc21	13.6
COC(=O)CSc1ccnc2cc(Cl)ccc12	14.2
C/C(=N/NC(=O)CNC(=O)c1cccnc1)c1ccc([N+](=O)[O-])cc1	5.31

Structure (SMILES)	hERG current change (%, negative = inhibition) at 1uM [%]
COc1ccc(Cl)c(Cn2c(NCC(C)O)nc3c2c(=O)n(C)c(=O)n3C)c1 (stereo not shown)	11.5
Oc1ccc(/C=N/Nc2cccc3cccnc23)c(O)c1	8.82
Cc1ccc2c(c1)NCC(C(=O)NC1CCC(C)CC1)O2 (stereo not shown)	13.3
O=C(NC1CCN(Cc2cccc([N+](=O)[O-])c2)CC1)c1ccccc1	-3.19
CCn1c(=NC(=O)COc2ccccc2)sc2cccc(F)c21	10
O=C(CCc1ccccc1)Nc1ccc(N2CCOCC2)c(Cl)c1	-3.69
N#CCN(N=Nc1ccccc1)c1ccccc1	15.4
COc1ccc(-c2nn(C)c3sc(C(=O)NCCN(C)C)cc23)cc1OC	22.4
CCCN(CC(=O)Nc1ccccc1OC)C(=O)CCC(=O)c1ccc(F)cc1	1.81
CN(C(=O)CC(=O)Nc1ccc(Cl)c(Cl)c1)c1ccccc1	3.44
COc1ccc(C)cc1S(=O)(=O)N1CCCCC1	7.39
O=C(NCCCN1CCCC1)c1ccc(CS(=O)(=O)c2ccc(Cl)cc2)o1	18.1
CCCNC(=O)N1[C@H]2CC[C@@H]1C(C(=O)OC)=C(c1ccc(Cl)c(C(F)(F)F)c1)C2	11.2
COc1cc(OC)cc(-c2sc3ccc(OC)cc3c2C#CCCO)c1	17.1
O=C1Nc2ccccc2C(O)(C(=O)NCc2ccco2)N1c1ccc(Cl)c(Cl)c1 (stereo not shown)	8.48
CCOc1ccc2oc(C(=O)NCC(C)(C)CN(C)C)c(C)c2c1.Cl	-13
CCn1cc(C(=O)NC(C)C)c(=O)c2cc(F)c(N3CCN(C(=O)c4ccco4)CC3)cc21	-4.05
Cc1ccc(S(=O)(=O)N(C)c2ccc(C)c([N+](=O)[O-])c2)cc1	6.74
COc1cc(NC(=O)CC2NCCNC2=O)cc(OC)c1 (stereo not shown)	20.3
COc1cccc(OC)c1OCCN1CCN(C(=O)c2ccco2)CC1.Cl	7.12
COc1cc(/C=C(/C#N)C(=O)NCc2ccccc2)cc(OC)c1OC	8.05
Cc1ccccc1NC(=O)Cc1nc(COC(=O)c2cc(Cl)ccc2O)cs1	9.21
